Results on 42 sequences are retold here after paper PMC7819943, “Rice protein-binding microarrays: a tool to detect cis-acting elements near promoter regions in rice”.

Some of the results follow.

The assay deals with T1, OsWOX13 (Oryza sativa, UniProt Q5QMM3 1-267).
T1 sequence: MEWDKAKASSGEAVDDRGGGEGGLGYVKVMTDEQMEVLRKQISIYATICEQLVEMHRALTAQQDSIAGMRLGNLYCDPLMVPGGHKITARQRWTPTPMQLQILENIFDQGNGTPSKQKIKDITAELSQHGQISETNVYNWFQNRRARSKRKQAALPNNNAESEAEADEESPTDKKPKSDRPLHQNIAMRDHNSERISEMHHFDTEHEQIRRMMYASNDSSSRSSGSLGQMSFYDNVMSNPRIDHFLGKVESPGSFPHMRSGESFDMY
The assay is described as follows: protein-binding microarray (RPBM); PBS, 2% BSA, 51.3 ng/ul salmon testes DNA, 50 uM zinc acetate, 200 nM TF, 25 C, 1 h; high values mean tight binding. Conditions: protein: recombinant; tags: N-terminal polyhistidine and DsRed monomer fusion (pET32a); label: CyDye5-dUTP incorporated in the synthesized complementary strand; 3' TTTTT single-stranded linker to array surface; dsDNA, one strand shown. In a few lines: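 Per-feature fluorescence intensity (arbitrary units), read on an Axon 4000B scanner, is the binding signal. Transcription factors carrying an N-terminal polyhistidine tag and DsRed fusion were expressed in E. coli BL21-CodonPlus and purified on Ni–NTA. A custom Agilent array, made double-stranded by primer extension with Cy5-dUTP and blocked with 2% BSA, was incubated with 200 nM protein in PBS, 2% BSA, salmon testes DNA and 50 µM zinc acetate at 25 °C for 1 h and then washed.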
“GCTACGTGATTATCTAAGAACTATCGGTTGATCTAATCATCGGAGTCACCTAGTGCAG”: the binding signal was 10300 fluorescence intensity (a.u.).

For “CTTAACGACACCTGATTAGCAGCTCCAGTACACTAATTAACGGAGTCACCTAGTGCAG”, the binding signal was 20300 fluorescence intensity (a.u.).

Take “TATATATATATATATATATATATATATATATATTAATGGTCGGAGTCACCTAGTGCAG”: the binding signal was 10600 fluorescence intensity (a.u.).

For the sequence “TTGAGTGTAACTTTGTAATAAATTGGAAAGGCTGGGATATCGGAGTCACCTAGTGCAG”, the binding signal is 4090 fluorescence intensity (a.u.).

For “ATTGACCATTTGACAGAAATCAGCCGTACTTTCGGATTCTCGGAGTCACCTAGTGCAG”, the binding signal is 5100 fluorescence intensity (a.u.).

For the sequence “TGCTAATTAGATGAGGGTGAGCAAAGACATGCTATAAGTGCGGAGTCACCTAGTGCAG”, the binding signal was 52000 fluorescence intensity (a.u.).

On to “TAATTGAGGGTAATTAATATAATCGTCCGGACATCGTGCGCGGAGTCACCTAGTGCAG”, for which the binding signal was 10500 fluorescence intensity (a.u.).

Consider “ATGTGATTTGGGAAACAAAGTGAACAACCTAACCTAAACCCGGAGTCACCTAGTGCAG”, for which the binding signal was 17600 fluorescence intensity (a.u.).

Turning to “AGTAATTTTGTTCTGATTGCATGTCTCAACAGGATGTAGACGGAGTCACCTAGTGCAG”, the binding signal is 41300 fluorescence intensity (a.u.).

As for “TTGTGATGAACTTTTGACAAGGTTTGTACCTGCAGCAGGACGGAGTCACCTAGTGCAG”, the binding signal is 6570 fluorescence intensity (a.u.).

As for “CAACTAAACTTTTAATTTTAGCATAAACTAAACAGACCCACGGAGTCACCTAGTGCAG”, the binding signal is 5430 fluorescence intensity (a.u.).

In the case of “TTTGATGTGATGGAAAAGTTGGAAGTTTGAAGAAAAGGTTCGGAGTCACCTAGTGCAG”, the binding signal was 12300 fluorescence intensity (a.u.).

“GCTAGATTGGATAAGGAGGGGAGGAGGGTGGAGGGGAGGGCGGAGTCACCTAGTGCAG”: the binding signal was 5660 fluorescence intensity (a.u.).

“TACAAATCAATGTCGCATTTGGTGTTCGACTGTTCGTTTCCGGAGTCACCTAGTGCAG”: the binding signal was 3340 fluorescence intensity (a.u.).

For the sequence “AGCTATATCAATTTGAGACCTAAATGATACACTTAGATGACGGAGTCACCTAGTGCAG”, the binding signal is 7160 fluorescence intensity (a.u.).

For “TTGACGGCGTTAATTTGGTACTTAACAGCCGTCAACAATACGGAGTCACCTAGTGCAG”, the binding signal is 19000 fluorescence intensity (a.u.).

On to “TGTCACATCATCATCCACTAATTAACAAGATACCACATCACGGAGTCACCTAGTGCAG”, for which the binding signal is 13200 fluorescence intensity (a.u.).

“TTGATGGATTACTACTCTCCAGGTGTCTTGTATGCCCCTTCGGAGTCACCTAGTGCAG”: the binding signal is 19700 fluorescence intensity (a.u.).

For “TCGTGACCCTTGATTGTCAGTATCACCCTTTTGGAGATATCGGAGTCACCTAGTGCAG”, the binding signal is 7120 fluorescence intensity (a.u.).

In the case of “CAATCTCAATCAAAGATTACAGAATCAATTTGCTTCTAATCGGAGTCACCTAGTGCAG”, the binding signal is 14800 fluorescence intensity (a.u.).

As for “AAATTTTAATTTATTAGTGTACAATCGACATGCAAGATTTCGGAGTCACCTAGTGCAG”, the binding signal is 5850 fluorescence intensity (a.u.).

On to “CCCCACTGATGATGATGATGACTCGATTCTATTCCACCGCCGGAGTCACCTAGTGCAG”, for which the binding signal is 12400 fluorescence intensity (a.u.).

Turning to “CAAAGATTTCACTGTTTAATCTAATCTTGTGGATTTTATGCGGAGTCACCTAGTGCAG”, the binding signal was 3590 fluorescence intensity (a.u.).

Regarding “ATTCTTGACTGGACGATTATACGTACAGAGGCCATGCAGACGGAGTCACCTAGTGCAG”, the binding signal is 7540 fluorescence intensity (a.u.).

“ATGTAATTTTAAATTCAACTTAAACAACAAGAATAACAAACGGAGTCACCTAGTGCAG”: the binding signal is 12000 fluorescence intensity (a.u.).

Consider “GCATAATTATATATACTCGCTGGCTTCTTAGTTGCAACCACGGAGTCACCTAGTGCAG”, for which the binding signal is 26200 fluorescence intensity (a.u.).

With “GCGGAATGATTTCATTTTGATGTATGATAGCACTTCATAGCGGAGTCACCTAGTGCAG”, the binding signal was 15000 fluorescence intensity (a.u.).

On to “TACCTAATTGTGAGAAGATGTCGCAGGTACCAGGAGTTACCGGAGTCACCTAGTGCAG”, for which the binding signal was 14100 fluorescence intensity (a.u.).

For the sequence “CTCCCAAGTAAATGATTTGAAATACCCGATCTAATTATTACGGAGTCACCTAGTGCAG”, the binding signal was 3180 fluorescence intensity (a.u.).

Regarding “AATGACAGGACAACGAGGACACCGTGGATATTAAAGACCCCGGAGTCACCTAGTGCAG”, the binding signal is 5040 fluorescence intensity (a.u.).

Take “GATCAATCTAAATAGCTAAACTTGTTGGCTCCATGTAAAACGGAGTCACCTAGTGCAG”: the binding signal was 4760 fluorescence intensity (a.u.).

For the sequence “TGTGCTGCTAATTAATTGCGTACACGCATGCATACACACACGGAGTCACCTAGTGCAG”, the binding signal was 17200 fluorescence intensity (a.u.).

For “ATACTCCAATTGACAGGCAAATGAAATGAATAGTTCTAGACGGAGTCACCTAGTGCAG”, the binding signal was 21600 fluorescence intensity (a.u.).

As for “CAATTTAAGTTTAAATTGGCATTTCCACTTCTTAACGCCTCGGAGTCACCTAGTGCAG”, the binding signal was 10300 fluorescence intensity (a.u.).

Take “TCGCCATTAATTACTATTGCGATCTTGAGCCTGCGTGGCACGGAGTCACCTAGTGCAG”: the binding signal was 14600 fluorescence intensity (a.u.).

As to “TATCCAGCGTTAACTTATTAATTAGTTAGTCAAATATTCCCGGAGTCACCTAGTGCAG”, the binding signal is 10100 fluorescence intensity (a.u.).

Take “ATAAATTTGGAGTTATCATAGAACTATAAATTCTAAAGCTCGGAGTCACCTAGTGCAG”: the binding signal is 3440 fluorescence intensity (a.u.).

Regarding “CTGCAGATTAGCTTGAAATGTAATGAAGGATAGCGTCTGACGGAGTCACCTAGTGCAG”, the binding signal is 8640 fluorescence intensity (a.u.).

“ATTTTAATGAATTTAAACATATACATATGTTTAGATTCATCGGAGTCACCTAGTGCAG”: the binding signal is 4860 fluorescence intensity (a.u.).

Consider “TAAAGATTTAATTGTAACGATCATAACGGTATATACAGATCGGAGTCACCTAGTGCAG”, for which the binding signal was 16700 fluorescence intensity (a.u.).

With “TACTTATAATTAGTGTTAAACATCCGATGTGACGGGTACTCGGAGTCACCTAGTGCAG”, the binding signal is 23900 fluorescence intensity (a.u.).

“CAAATTACGCCCTACTAATTCATTGGTAATTTTGTATAGTCGGAGTCACCTAGTGCAG”: the binding signal is 9390 fluorescence intensity (a.u.).
